About 2,200 (0.71%) of roughly 310,000 compounds showed an effect of 50% or more. Effects have a minus sign here. Some of the results follow.

Chain of human ether-à-go-go-related gene (hERG) potassium channel (Q12809 whole entry, looked up): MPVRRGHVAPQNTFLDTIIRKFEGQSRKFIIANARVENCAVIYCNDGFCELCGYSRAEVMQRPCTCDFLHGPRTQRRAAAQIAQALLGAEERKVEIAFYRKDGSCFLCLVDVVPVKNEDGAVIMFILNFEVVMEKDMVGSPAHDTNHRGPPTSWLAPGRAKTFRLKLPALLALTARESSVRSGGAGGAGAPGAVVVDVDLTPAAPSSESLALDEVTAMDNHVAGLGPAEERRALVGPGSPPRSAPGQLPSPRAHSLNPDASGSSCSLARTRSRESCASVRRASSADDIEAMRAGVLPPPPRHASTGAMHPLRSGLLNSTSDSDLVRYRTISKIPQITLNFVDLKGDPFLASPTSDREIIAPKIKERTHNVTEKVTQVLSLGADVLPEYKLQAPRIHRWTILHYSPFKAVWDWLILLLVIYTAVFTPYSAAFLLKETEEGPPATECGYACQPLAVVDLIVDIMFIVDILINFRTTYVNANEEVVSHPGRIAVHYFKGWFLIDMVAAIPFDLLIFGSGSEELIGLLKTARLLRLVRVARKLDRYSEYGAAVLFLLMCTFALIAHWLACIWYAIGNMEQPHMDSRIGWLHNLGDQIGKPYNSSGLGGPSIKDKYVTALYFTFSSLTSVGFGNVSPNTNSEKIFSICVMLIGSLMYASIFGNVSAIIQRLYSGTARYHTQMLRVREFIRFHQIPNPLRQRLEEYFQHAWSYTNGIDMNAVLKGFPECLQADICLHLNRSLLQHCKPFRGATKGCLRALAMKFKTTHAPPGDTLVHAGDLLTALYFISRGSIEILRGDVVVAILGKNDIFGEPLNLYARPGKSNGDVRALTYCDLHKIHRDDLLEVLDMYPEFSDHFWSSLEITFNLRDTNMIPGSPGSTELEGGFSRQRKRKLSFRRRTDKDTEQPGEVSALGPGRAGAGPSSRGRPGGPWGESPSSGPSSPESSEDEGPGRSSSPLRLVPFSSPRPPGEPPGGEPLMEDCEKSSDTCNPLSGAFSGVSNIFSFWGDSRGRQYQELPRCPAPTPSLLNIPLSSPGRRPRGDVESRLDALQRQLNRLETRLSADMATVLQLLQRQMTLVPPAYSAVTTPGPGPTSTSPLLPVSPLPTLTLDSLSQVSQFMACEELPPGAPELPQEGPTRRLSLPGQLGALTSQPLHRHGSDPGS

The test concerns the target human ether-à-go-go-related gene (hERG) potassium channel (human, UniProt Q12809). The test can be described thus: primary screen, population patch clamp on CHO cells stably expressing hERG.
With `C=CCn1c(Cc2cccs2)nnc1SCC(=O)Nc1ccc(OC)cc1`, the “hERG current change (%, negative = inhibition) at 1uM” value is given as -8.42%.
As for `Cc1ccccc1NC(=O)CN1CCC(NC(=O)Nc2ccccc2)CC1`, the figure is 3.92%; as for `CC(=O)Nc1cn(C(C)=O)c(C)n1`, 4.17%.
Consider `CCCCCCNS(=O)(=O)c1nc2nc(C)cc(C)n2n1`, for which the “hERG current change (%, negative = inhibition) at 1uM” value was found to be 10.2%.
In the case of `Cc1ccc(-n2cnc3scc(-c4cccs4)c3c2=O)cc1`, the “hERG current change (%, negative = inhibition) at 1uM” value is 12%.
As to `CCC(=O)N1CCN(c2cc(N3CCCC3)c(F)cc2[N+](=O)[O-])CC1`, the “hERG current change (%, negative = inhibition) at 1uM” value was found to be 4.27%.
For `Cc1csc(=O)n1CC(=O)OCC(=O)c1c(N)n(C)c(=O)n(C)c1=O` the value was 7.49%.
As for `COCCn1c(C)cc(C2=NNC(=Nc3ccccc3)SC2)c1C`, the figure is -4.24%; as for `CC(O)(CS(=O)(=O)c1ccccc1)C(=O)Nc1cccc(C(F)(F)F)c1` (centres unmarked), -14.6%.
Regarding `CC(C)c1ccccc1NC(=S)NC1CCN(Cc2ccccc2)CC1`, the “hERG current change (%, negative = inhibition) at 1uM” value is -11.6%.
On to `Cc1ccc2nsnc2c1S(=O)(=O)N1CCN(C)CC1`, for which the “hERG current change (%, negative = inhibition) at 1uM” value came to 10.8%.
For the molecule `OCCN1CCN(C(=S)Nc2ccc(SC(F)F)cc2)CC1`, the “hERG current change (%, negative = inhibition) at 1uM” value stood at 7.23%.
Regarding `COc1cc(/C=C/C(=O)OCC(=O)NCC2CCCCC2)ccc1O`, the “hERG current change (%, negative = inhibition) at 1uM” value worked out at 7.78%.
As for `CCCCOc1ccc(C(=O)Nc2ccc(SC(F)F)cc2)cc1OC`, the figure is -3.49%.
As for `CCOC(=O)C1=C(C)OC(N)=C(C#N)C12C(=O)Nc1ccc(C)cc12` (centres unmarked), the figure is 5.38%; as for `Cc1cccc(-c2nc(CS(=O)CC(=O)NCCc3ccccc3)c(C)o2)c1` (centres unmarked), 14%; as for `O=S(=O)(c1cccc(Br)c1)N1CCN(CCc2ccccc2)CC1`, 6.35%.
On to `COc1ccc(N2CCN(c3ccc(Cl)nn3)CC2)cc1`, for which the “hERG current change (%, negative = inhibition) at 1uM” value came to 0.746%.
`O=C(N/N=C/c1ccc(-c2ccc([N+](=O)[O-])cc2)o1)[C@H]1C[C@@H]1c1ccccc1`: the “hERG current change (%, negative = inhibition) at 1uM” value was found to be 8.54%.
With `CC(=O)Nc1cc(-c2nn3c(C)nnc3s2)ccc1C`, the “hERG current change (%, negative = inhibition) at 1uM” value is reported as 14.7%.
Consider `COC(=O)Cc1c(O)ccn(Cc2ccc(OC)c(OC)c2)c1=O`, for which the “hERG current change (%, negative = inhibition) at 1uM” value is given as 5.21%.
Consider `C=C1C[C@]2(O)[C@@]3(C)CCC(=O)C(C)(C)C3=C(O)C(=O)[C@@]2(C)[C@@H]2C(=O)O[C@@](C)(C(=O)OC)C(=O)[C@@]12C`, for which the “hERG current change (%, negative = inhibition) at 1uM” value was 3.54%.
As for `CC(N)c1ccc(Cl)cc1Cl` (centres unmarked), the figure is 9.93%; as for `Cc1ccc(NC(=O)CCC(=O)N2CCC(C)CC2)c([N+](=O)[O-])c1`, 5.15%; as for `COc1ccc(CCNC2CCN(C)CC2)cc1OC`, 9.67%.
As to `Cc1ccc2c(CC(=O)NC3CCCc4ccccc43)coc2c1` (centres unmarked), the “hERG current change (%, negative = inhibition) at 1uM” value was found to be 12.1%.
For the molecule `CCOc1ccc(/C=N/n2c(C)nc3ccccc3c2=O)cc1`, the “hERG current change (%, negative = inhibition) at 1uM” value is listed as 14.8%.
As for `COc1ccc(OCC(=O)Nc2ccc(N3CCOCC3)cc2)cc1`, the “hERG current change (%, negative = inhibition) at 1uM” value is 0.628%.
On to `CN(C)S(=O)(=O)c1cccc(NC(=O)COC(=O)/C=C/c2ccc3c(c2)OCO3)c1`, for which the “hERG current change (%, negative = inhibition) at 1uM” value was found to be 16.7%.
For `CCN1CCCC1CN(Cc1cc2c(C)cc(C)cc2[nH]c1=O)C(=O)NC1CCCCC1` (centres unmarked) the value was -40.2%; for `N=C1C(c2nc3ccccc3[nH]2)=C(O)CN1c1ccccc1`, 9%.
On to `O=C(Nc1ccc(F)cc1)c1ccc(=O)[nH]n1`, for which the “hERG current change (%, negative = inhibition) at 1uM” value is 16%.
For `O=C(CCN1CCCCO1)N1CCCC(Nc2ccc(F)cc2)C1` (centres unmarked), the “hERG current change (%, negative = inhibition) at 1uM” value is given as 13.4%.
For the molecule `COC(=O)C(C)(C)ONC(=O)Nc1ccc(Br)cc1`, the “hERG current change (%, negative = inhibition) at 1uM” value is reported as -0.828%.
Regarding `Cc1cc(O)c(C(C)C)cc1NC(=O)c1cccc(Cl)c1`, the “hERG current change (%, negative = inhibition) at 1uM” value is recorded as 4.68%.
For the molecule `Cc1cc(C(=O)Nn2cnc3ccccc3c2=O)ccc1[N+](=O)[O-]`, the “hERG current change (%, negative = inhibition) at 1uM” value amounted to 20%.
As for `CC1CCc2onc(C(=O)O)c2C1` (centres unmarked), the “hERG current change (%, negative = inhibition) at 1uM” value is reported as 14.4%.
With `Cc1ccc(NC(=O)/C(=C/c2cccs2)NC(=O)c2ccco2)cc1`, the “hERG current change (%, negative = inhibition) at 1uM” value is given as 17%.
Take `Cn1c(=O)c2c(ncn2CC(O)CNc2ccc(Cl)cc2)n(C)c1=O` (centres unmarked): the “hERG current change (%, negative = inhibition) at 1uM” value was -0.343%.
`Cc1ccc(C2CC(=O)Nc3c2ccc2ccccc32)cc1[N+](=O)[O-]` (centres unmarked): the “hERG current change (%, negative = inhibition) at 1uM” value is listed as 8.82%.
Take `Fc1ccc(CNc2ncnc3c2cnn3-c2ccccc2)cc1`: the “hERG current change (%, negative = inhibition) at 1uM” value was -2.76%.
For `CCN(CC)CCCN(Cc1cc2cc3c(cc2[nH]c1=O)OCO3)C(=S)Nc1ccccc1OC`, the “hERG current change (%, negative = inhibition) at 1uM” value is listed as 11.2%.
As to `COc1c(N2CCN(C(=S)Nc3ccc(F)cc3)C(C)C2)c(F)cc2c(=O)c(C(=O)O)cn(C3CC3)c12` (centres unmarked), the “hERG current change (%, negative = inhibition) at 1uM” value is reported as 15.8%.
`CN1CCN(C(=O)c2ccc3c(c2)NC(=O)C(N2CCOCC2)S3)CC1` (centres unmarked): the “hERG current change (%, negative = inhibition) at 1uM” value came out at 7.58%.
In the case of `Cc1onc(-c2ccccc2Cl)c1C(=O)NCc1cccnc1`, the “hERG current change (%, negative = inhibition) at 1uM” value was determined as 10.3%.
Consider `COc1ccc(NC(=O)COC(=O)c2cc([N+](=O)[O-])ccc2N2CCOCC2)cc1`, for which the “hERG current change (%, negative = inhibition) at 1uM” value amounted to 10.5%.
For `Cc1ccc(NC(=O)c2cc(C)n(-c3ccccc3)c2C)cc1` the value was 10.9%; for `CC12CC(NC(=O)N1c1cccc(C(=O)N3CCCCC3)c1)c1ccccc1O2` (centres unmarked), 11%; for `CC1(C)CC2CC(C)(CN2S(=O)(=O)c2ccc(C(=O)Nc3ccc(Cl)c(S(=O)(=O)N4CCOCC4)c3)cc2)C1` (centres unmarked), 2.28%.
On to `O=C1CSC(=Nc2ccc(Cl)cc2)N1Cc1ccco1`, for which the “hERG current change (%, negative = inhibition) at 1uM” value stood at 8.12%.
For the molecule `Cc1cc(NC(=O)c2c(-c3c(F)cccc3Cl)noc2C)no1`, the “hERG current change (%, negative = inhibition) at 1uM” value is given as 5.47%.
For `O=C(Nc1ccc2c(c1)CCC2)c1cc(S(=O)(=O)Nc2ccc(F)cc2)c(Cl)cc1Cl` the value was 3.03%; for `Clc1ccc(-c2nc(NCCCN3CCOCC3)c3ccccc3n2)cc1`, 11.5%.
For the molecule `Cc1cc(C)c(C)c(S(=O)(=O)NCc2ccc(C(=O)N3CCCCC3)cc2)c1C`, the “hERG current change (%, negative = inhibition) at 1uM” value stood at 4.38%.
Regarding `CN(c1nc2ccccc2n2c(-c3ccco3)nnc12)S(=O)(=O)c1ccccc1`, the “hERG current change (%, negative = inhibition) at 1uM” value is listed as -5.43%.
As to `COc1ccc(S(=O)(=O)N(CC(N)=O)C2CCCCC2)cc1Cl`, the “hERG current change (%, negative = inhibition) at 1uM” value was 10.7%.
For `Cc1ccc(-c2nn3c(C)nnc3s2)cc1NC(=O)c1ccco1` the value was 0.0635%.
Regarding `O=C1C2(c3ccccc3)CN3CN(C2)CC1(c1ccccc1)C3`, the “hERG current change (%, negative = inhibition) at 1uM” value was -1.04%.
In the case of `COc1cccc(NC(=O)Nc2nnc(CC(=O)NCc3ccccc3)s2)c1`, the “hERG current change (%, negative = inhibition) at 1uM” value amounted to 5.05%.
With `C=C1C2(C(=O)Nc3ccc(SC(F)F)cc3)CCC(C2)C1(C)C` (centres unmarked), the “hERG current change (%, negative = inhibition) at 1uM” value turned out to be 10.6%.
Regarding `Cc1ccc(N2C(=O)[C@@H]3Cc4ccccc4CN3C2=O)cc1`, the “hERG current change (%, negative = inhibition) at 1uM” value came to 0.887%.
With `COc1cc(CNCCCN2CCOCC2)c(Br)cc1OCC(=O)Nc1ccccc1C`, the “hERG current change (%, negative = inhibition) at 1uM” value was 14.4%.
Turning to `CCCCN(CCCC)CC(O)Cn1c2ccccc2c(=O)c2ccccc21` (centres unmarked), the “hERG current change (%, negative = inhibition) at 1uM” value is recorded as -42.7%.
As to `Cc1nnc(CN(C)C(=O)c2cc(COc3ccc(C)c(C)c3)on2)o1`, the “hERG current change (%, negative = inhibition) at 1uM” value is given as 12.2%.
For `CCCCNC(=O)C1CCCN1C(=O)NC1CCCCC1` (centres unmarked) the value was 12.5%.
As for `CC(C)Nc1oc(Cc2cccc3ccccc23)nc1C#N`, the “hERG current change (%, negative = inhibition) at 1uM” value is -13.3%.
In the case of `CN(C(=O)CN1CC=C(c2ccccc2)CC1)c1c(N)n(Cc2ccccc2)c(=O)[nH]c1=O`, the “hERG current change (%, negative = inhibition) at 1uM” value worked out at 17.7%.
As for `CC1Cc2cc(/C(O)=C3\C(=O)C(=O)N(Cc4cccnc4)C3c3ccccc3F)ccc2O1` (centres unmarked), the “hERG current change (%, negative = inhibition) at 1uM” value is reported as 8.65%.
As for `CC(=O)Nc1c(-c2ccc(Cl)cc2)c(=O)c2ccccc2n1C`, the figure is 6.75%; as for `Cc1ccc(NC(=O)CSc2nc(=O)n(CCN(C)C)c3c2CCCC3)cc1Cl`, -5.68%; as for `Cc1ccc(N2C(=O)CS/C2=N\C(=S)Nc2ccccc2)cc1`, 15%.
Turning to `CCOCCCn1c(=S)[nH]c2cc(C(=O)NC3CCCC(C)C3C)ccc2c1=O` (centres unmarked), the “hERG current change (%, negative = inhibition) at 1uM” value turned out to be 7.82%.
As for `O=C(c1ccccc1)C(C(=O)N1CCc2ccccc2C1)n1ccccc1=O` (centres unmarked), the “hERG current change (%, negative = inhibition) at 1uM” value was 4.66%.
As for `COc1ccc(CCNCCN2CCOCC2)cc1.Cl`, the “hERG current change (%, negative = inhibition) at 1uM” value is 15.1%.
Consider `C=CCn1c(CC(=O)Nc2ccc(C)cc2C)nnc1SCC(=O)N1CCOCC1`, for which the “hERG current change (%, negative = inhibition) at 1uM” value is 14.6%.
As to `O=C(CCCNS(=O)(=O)c1cccc2nsnc12)N1CCCCC1`, the “hERG current change (%, negative = inhibition) at 1uM” value stood at 17.2%.
With `Cc1ccc(C(O)c2nc3ccccc3n2C(C)C)cc1` (centres unmarked), the “hERG current change (%, negative = inhibition) at 1uM” value is reported as 16%.
For `Cc1ccc(-c2ccc(C(=O)Nc3ccccc3)o2)c2ccccc12` the value was 2.6%; for `Cc1cc(=O)n2[nH]c(-c3ccccc3)cc2n1`, 11.2%.
In the case of `Cn1nccc1-c1cc(Cl)cc(Cl)c1O`, the “hERG current change (%, negative = inhibition) at 1uM” value was 14.3%.
Take `COc1ccc(S(=O)(=O)N2CCCCCC2)cc1C(=O)OCc1c(C)noc1C`: the “hERG current change (%, negative = inhibition) at 1uM” value was found to be 5.35%.
In the case of `Cc1ccc(-c2cc(C(=O)Nc3c(C#N)cnn3C)no2)cc1`, the “hERG current change (%, negative = inhibition) at 1uM” value turned out to be 1.51%.
For the molecule `COc1ccc2c(/C=C/c3cc[n+](C)cc3)c[nH]c2c1.[I-]`, the “hERG current change (%, negative = inhibition) at 1uM” value turned out to be 6.76%.
On to `COc1ccccc1N1CCN(C(=O)CCNS(=O)(=O)c2ccc3c(c2)CCC(=O)N3)CC1`, for which the “hERG current change (%, negative = inhibition) at 1uM” value is 7.88%.
For `O=c1[nH]cnc2cc(-c3ccccc3)sc12`, the “hERG current change (%, negative = inhibition) at 1uM” value is given as -0.187%.
With `CC(C)c1ccc(CCNC(=O)CCNS(=O)(=O)c2ccc(Br)cc2)cc1`, the “hERG current change (%, negative = inhibition) at 1uM” value was found to be 9.33%.
With `COc1ccccc1-n1c(=O)[nH]c2c(C(N)=O)nc(-c3cccnc3)nc21`, the “hERG current change (%, negative = inhibition) at 1uM” value turned out to be 15.9%.
For `C=CCNC(=S)NNC(=O)c1ccc(Br)o1`, the “hERG current change (%, negative = inhibition) at 1uM” value worked out at 6.63%.
As for `O=C1CC2(CCN(C(=O)COc3ccc(F)cc3)CC2)Oc2ccccc21`, the “hERG current change (%, negative = inhibition) at 1uM” value is on record as -17%.
